Source: paper PMC12631511, “Roots of Indian heliotrope (Heliotropium indicum) produce simple pyrrolizidine alkaloids using the same homospermidine oxidase involved in biosynthesis of complex pyrrolizidine alkaloids in aerial parts” (Plant Biology (Stuttgart, Germany), 2025)

How the values were obtained:
HiCuAO5 [1] = target: T1, HiCuAO5 (Heliotropium indicum, UniProt A0A8T9EJA1); conditions: 48 h incubation; desalted crude extract of expressing leaves, empty vector control
T1 construct: gene CuAO5

HiCuAO3 = target: T2, HiCuAO3 (Heliotropium indicum, UniProt A0A8T9EV85); conditions: 48 h incubation
T2 construct: gene CuAO3

HiCuAO5 [2] = target: T1, HiCuAO5; conditions: desalted crude extract of expressing leaves

Structure (SMILES)	in vitro incubation, GC-MS product identification (HiCuAO5 [1])	in vitro incubation, GC-MS product identification (HiCuAO3)	CuAO-specific colorimetric assay (HiCuAO5 [2])
NCCCCNCCCCN [Hspd]	Only in incubations of HiCuAO3 and HiCuAO5 was the bicyclic pyrrolizidine identified	Only in incubations of HiCuAO3 and HiCuAO5 was the bicyclic pyrrolizidine identified	–
NCCCCN [Put]	–	–	the desalted crude protein extract of HiCuAO5 showed activity with Put as substrate
